Results on five molecules are retold here after patent publication US20250270339A1 (Alector, published 2025).

T1: Cyno TfR ECD Avi-His (cynomolgus macaque, UniProt Q5RDH6 89-760 (Pongo abelii entry), biotin on the Avi tag (BirA) where captured on streptavidin)
T1 construct: also called Cyno TfR Avi-His; cyno TfR Avi-His
T1 chain: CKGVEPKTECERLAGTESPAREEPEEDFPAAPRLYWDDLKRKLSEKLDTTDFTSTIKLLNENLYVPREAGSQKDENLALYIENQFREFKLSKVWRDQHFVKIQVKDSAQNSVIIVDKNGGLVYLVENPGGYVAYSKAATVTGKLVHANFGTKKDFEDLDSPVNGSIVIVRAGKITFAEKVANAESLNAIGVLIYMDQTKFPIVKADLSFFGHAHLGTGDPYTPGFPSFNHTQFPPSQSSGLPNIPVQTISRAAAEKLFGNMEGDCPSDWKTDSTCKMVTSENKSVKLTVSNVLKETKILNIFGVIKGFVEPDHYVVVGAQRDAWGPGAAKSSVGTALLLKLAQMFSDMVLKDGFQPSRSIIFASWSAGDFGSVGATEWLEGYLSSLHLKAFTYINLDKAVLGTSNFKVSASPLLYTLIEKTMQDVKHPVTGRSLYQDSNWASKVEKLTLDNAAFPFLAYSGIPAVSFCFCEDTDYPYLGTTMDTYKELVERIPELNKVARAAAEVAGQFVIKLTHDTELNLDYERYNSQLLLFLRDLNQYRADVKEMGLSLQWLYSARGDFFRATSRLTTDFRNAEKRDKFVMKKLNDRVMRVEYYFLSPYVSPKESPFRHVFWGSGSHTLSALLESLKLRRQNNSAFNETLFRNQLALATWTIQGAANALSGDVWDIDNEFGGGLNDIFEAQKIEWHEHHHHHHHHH

B1: TfR9.1B.24 2+1 anti-TfR bispecific antibody (bispecific antibody, human IgG1, kappa)
heavy 1: EVRLLESGGGLVQPGGSLRLSCAASGFTFSNYAMGWVRQAPGKGLEWVSAISGSGGSTYYADSVKGRFTTSRDDSKNALYLQMNSLRAEDTAVYYCARGGPGWYAADVWGQGTTVTVSSASTKGPSVFPLAPSSKSTSGGTAALGCLVKDYFPEPVTVSWNSGALTSGVHTFPAVLQSSGLYSLSSVVTVPSSSLGTQTYICNVNHKPSNTKVDKKV[here human IgG1 Fc with changes without letters]GGGGSGGGGSGGGGSQVQLVQSGAEVKKPGASVKVSCKASGYTFTEYAMHWVRQAPGQGLEWMGGINPNDGGTSYNQKFKGRVTMTVDTSTSTAYMELSSLRSEDTAVYYCASQRWLMRGGDYWGQGTLVTVSSGGSEGKSSSSGSESKSTGGSDVVMTQSPLSLPVTLGQPASISCKSSQSLLDSDGKTYLNWLQQRPGQSPRRLIYLVSKLDSGVPDRFSGSGSGTDFTLKISRVEAEDVGVYYCWQGTHFPQTFGGGTKVEIK
heavy 2: EVRLLESGGGLVQPGGSLRLSCAASGFTFSNYAMGWVRQAPGKGLEWVSAISGSGGSTYYADSVKGRFTTSRDDSKNALYLQMNSLRAEDTAVYYCARGGPGWYAADVWGQGTTVTVSS[here human IgG1 constant region with changes without letters]
light: DIQMTQSPSSLSASVGDRVTITCRASQSISSYLNWYQQKPGKAPKLLIYAASSLQSGVPSRFSGSGSGTDFTLTISSLQPEDFATYYCQQADLPAFAFGGGTKVEIKRTVAAPSVFIFPPSDEQLKSGTASVVCLLNNFYPREAKVQWKVDNALQSGNSQESVTEQDSKDSTYSLSSTLTLSKADYEKHKVYACEVTHQGLSSPVTKSFNRGEC
notes: 2+1
B2: TfR9.1B.27 2+1 anti-TfR bispecific antibody (bispecific antibody, human IgG1, kappa)
heavy 1: EVRLLESGGGLVQPGGSLRLSCAASGFTFSNYAMGWVRQAPGKGLEWVSAISGSGGSTYYADSVKGRFTTSRDDSKNALYLQMNSLRAEDTAVYYCARGGPGWYAADVWGQGTTVTVSSASTKGPSVFPLAPSSKSTSGGTAALGCLVKDYFPEPVTVSWNSGALTSGVHTFPAVLQSSGLYSLSSVVTVPSSSLGTQTYICNVNHKPSNTKVDKKV[here human IgG1 Fc with changes without letters]GGGGSGGGGSGGGGSQVQLVQSGAEVKKPGASVKVSCKASGYTFTEYAMHWVRQAPGQGLEWMGGINPNDGGTSYNQKFKGRVTMTVDTSTSTAYMELSSLRSEDTAVYYCASQRWLERGGDYWGQGTLVTVSSGGSEGKSSGSGSESKSTGGSDVVMTQSPLSLPVTLGQPASISCKSSQSLLDEDGKTYLNWLQQRPGQSPRRLIYLVSKLDSGVPDRFSGSGSGTDFTLKISRVEAEDVGVYYCWQGTHFPQTFGGGTKVEIK
heavy 2: EVRLLESGGGLVQPGGSLRLSCAASGFTFSNYAMGWVRQAPGKGLEWVSAISGSGGSTYYADSVKGRFTTSRDDSKNALYLQMNSLRAEDTAVYYCARGGPGWYAADVWGQGTTVTVSS[here human IgG1 constant region with changes without letters]
light: B1 light
notes: 2+1
B3: TfR9.1B.38 2+1 anti-TfR bispecific antibody (bispecific antibody, human IgG1, kappa)
heavy 1: EVRLLESGGGLVQPGGSLRLSCAASGFTFSNYAMGWVRQAPGKGLEWVSAISGSGGSTYYADSVKGRFTTSRDDSKNALYLQMNSLRAEDTAVYYCARGGPGWYAADVWGQGTTVTVSSASTKGPSVFPLAPSSKSTSGGTAALGCLVKDYFPEPVTVSWNSGALTSGVHTFPAVLQSSGLYSLSSVVTVPSSSLGTQTYICNVNHKPSNTKVDKKV[here human IgG1 Fc with changes without letters]GGGGSGGGGSGGGGSQVQLVQSGAEVKKPGASVKVSCKASGYTFTEYAMHWVRQAPGQGLEWMGGINPNDGGTSYAQKFKGRVTMTVDTSTSTAYMELSSLRSEDTAVYYCASQRWLNRGGDYWGQGTLVTVSSGGSEGKSSGSGSESKSTGGSDVVMTQSPLSLPVTLGQPASISCKSSQSLLDSDGKTYLNWLQQRPGQSPRRLIYLVSKLDSGVPDRFSGSGSGTDFTLKISRVEAEDVGVYYCWQGTHFPQTFGGGTKVEIK
heavy 2: EVRLLESGGGLVQPGGSLRLSCAASGFTFSNYAMGWVRQAPGKGLEWVSAISGSGGSTYYADSVKGRFTTSRDDSKNALYLQMNSLRAEDTAVYYCARGGPGWYAADVWGQGTTVTVSS[here human IgG1 constant region with changes without letters]
light: B1 light
notes: 2+1
B4: TfR9.1B.20 2+1 anti-TfR bispecific antibody (bispecific antibody, human IgG1, kappa)
heavy 1: EVRLLESGGGLVQPGGSLRLSCAASGFTFSNYAMGWVRQAPGKGLEWVSAISGSGGSTYYADSVKGRFTTSRDDSKNALYLQMNSLRAEDTAVYYCARGGPGWYAADVWGQGTTVTVSSASTKGPSVFPLAPSSKSTSGGTAALGCLVKDYFPEPVTVSWNSGALTSGVHTFPAVLQSSGLYSLSSVVTVPSSSLGTQTYICNVNHKPSNTKVDKKV[here human IgG1 Fc with changes without letters]GGGGSGGGGSGGGGSQVQLVQSGAEVKKPGASVKVSCKASGYTFTEYAMHWVRQAPGQGLEWMGGINPNDGGTSYNQKFKGRVTMTVDTSTSTAYMELSSLRSEDTAVYYCASQRWLQRGGDYWGQGTLVTVSSGGSEGKSSGSGSESKSTGGSDVVMTQSPLSLPVTLGQPASISCKSSQSLLDSDGKTYLNWLQQRPGQSPRRLIYLVSKLDSGVPDRFSGSGSGTDFTLKISRVEAEDVGVYYCWQGTKFPQTFGGGTKVEIK
heavy 2: EVRLLESGGGLVQPGGSLRLSCAASGFTFSNYAMGWVRQAPGKGLEWVSAISGSGGSTYYADSVKGRFTTSRDDSKNALYLQMNSLRAEDTAVYYCARGGPGWYAADVWGQGTTVTVSS[here human IgG1 constant region with changes without letters]
light: B1 light
notes: 2+1
B5: TfR9.1B.14 2+1 anti-TfR bispecific antibody (bispecific antibody, human IgG1, kappa)
heavy 1: EVRLLESGGGLVQPGGSLRLSCAASGFTFSNYAMGWVRQAPGKGLEWVSAISGSGGSTYYADSVKGRFTTSRDDSKNALYLQMNSLRAEDTAVYYCARGGPGWYAADVWGQGTTVTVSSASTKGPSVFPLAPSSKSTSGGTAALGCLVKDYFPEPVTVSWNSGALTSGVHTFPAVLQSSGLYSLSSVVTVPSSSLGTQTYICNVNHKPSNTKVDKKV[here human IgG1 Fc with changes without letters]GGGGSGGGGSGGGGSQVQLVQSGAEVKKPGASVKVSCKASGYTFTEYAMHWVRQAPGQGLEWMGGINPNDGGTHYNQKFKGRVTMTVDTSTSTAYMELSSLRSEDTAVYYCASQRWLLRGGDYWGQGTLVTVSSGGSEGKSSGSGSESKSTGGSDVVMTQSPLSLPVTLGQPASISCKSSRSLLDSDGKTYLNWLQQRPGQSPRRLIYLVSKLDSGVPDRFSGSGSGTDFTLKISRVEAEDVGVYYCWQGTHFPQTFGGGTKVEIK
heavy 2: EVRLLESGGGLVQPGGSLRLSCAASGFTFSNYAMGWVRQAPGKGLEWVSAISGSGGSTYYADSVKGRFTTSRDDSKNALYLQMNSLRAEDTAVYYCARGGPGWYAADVWGQGTTVTVSS[here human IgG1 constant region with changes without letters]
light: B1 light
notes: 2+1

The experiment concerns the target T1, Cyno TfR ECD Avi-His. Briefly: SPR (Carterra LSA), 2+1 immobilised. How it is done: The remaining unconjugated active groups on the chip were then blocked by injecting 1M Ethanolamine pH 8.5 (Carterra) for 7 minutes using the single channel flow cell.
Estimates of affinity were generated by injecting each analyte over the entire antibody array using the single channel flow cell. […] Data were processed and analyzed using NextGenKIT high-throughput kinetics analysis software (Carterra).
For B1, the binding result is recorded as “binds”.
Still for that read-out and setting: the same measure for B2: “binds”.
Still for that read-out and setting: then B3, with “binds”.
On the same count and under the same terms, then B4, with “binds”.
As usually defined, the Kd is the free concentration of one partner at which half of the binding sites on the other are occupied at equilibrium, for simple one-to-one binding. Low readings indicate a tighter complex, high ones a looser complex. With B5, the equilibrium dissociation constant (Kd) is 870 nM.
